In the supplement of paper PMC4967469:
A lower IC50 marks a more sensitive line; a limit (>, <) means that the fit lies beyond the doses tested. AUC sums up the same curve from the lowest dose to the 256-fold higher top dose: 1 means no effect, lower means more sensitive. For some of these results: Where the top dose is marked as inferred, it was derived from the fitted curves, not read from the paper. For some of these results: Drugs with an entry number were screened twice under separate entries, and the two screens often disagree.

Legend:
Experiment in all cases: Viability of human cancer cell lines after 72 h of drug (GDSC screen)
[1] = compound: Cc1ccc(C(=O)N(CCCN)[C@@H](c2nc3cc(Cl)ccc3c(=O)n2Cc2ccccc2)C(C)C)cc1 [SB-715992]; conditions: top dose 0.128 µM; top dose inferred
Method: (§1)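 Human cancer cell lines in 384-well plates, medium with 10% serum, drug for 72 h over a 256-fold dose range (nine 2-fold or five 4-fold steps up to the top dose). Adherent lines were fixed and stained with the nucleic acid dye Syto60, suspension lines read with resazurin; signal relative to control wells, capped at 0 and 100%. One two-parameter sigmoid per drug and line, fitted in a mixed model over all curves with the slope shared within a line.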

[2] = compound: CC1(C)CNc2cc(NC(=O)c3cccnc3NCc3ccncc3)ccc21 [AMG-706]; conditions: top dose 2 µM; top dose inferred
Method: as §1

[3] = compound: CC(=O)O[C@@]12CO[C@@H]1C[C@H](O)[C@@]1(C)C(=O)[C@H](O)C3=C(C)[C@@H](OC(=O)[C@H](O)[C@@H](NC(=O)OC(C)(C)C)c4ccccc4)C[C@@](O)([C@@H](OC(=O)c4ccccc4)[C@H]21)C3(C)C [Docetaxel]; conditions: top dose 0.0125 µM
Method: as §1

[4] = compound: COC(=O)[C@H](CCSC)NC(=O)c1ccc(NC[C@@H](N)CS)cc1-c1ccccc1 [FTI-277]; conditions: top dose 1.024 µM; top dose inferred
Method: as §1

[5] = compound: CCOc1nc(NC(=O)Cc2cc(OC)ccc2OC)cc(N)c1C#N [JNK Inhibitor VIII]; conditions: top dose 10 µM; top dose inferred
Method: as §1

[6] = compound: C[C@]1(O)C[C@@H](c2nc(-c3ccc4ccc(-c5ccccc5)nc4c3)c3c(N)nccn32)C1 [OSI-906]; conditions: top dose 2.56 µM; top dose inferred
Method: as §1

[7] = compound: CN1CCN(c2ccc([N+](=O)[O-])c3no[n+]([O-])c23)CC1 [NSC-207895]; conditions: top dose 20 µM; top dose inferred
Method: as §1

[8] = compound: Cc1sc2c(c1C)C(c1ccc(Cl)cc1)=N[C@@H](CC(=O)OC(C)(C)C)c1nnc(C)n1-2 [JQ1]
Method: as §1

[9] = compound: O=C(/C=C/c1cccc(S(=O)(=O)Nc2ccccc2)c1)NO [Belinostat]; conditions: top dose 20 µM; top dose inferred
Method: as §1

[10] = compound: c1ccc2c(CCNc3ccc(Nc4ccncc4)cc3)c[nH]c2c1 [JNJ-26854165]; conditions: top dose 10 µM
Method: as §1

[11] = compound: COCC[n+]1c2c(n(Cc3cnccn3)c1C)C(=O)c1ccccc1C2=O [YM155]; conditions: top dose 5.12 µM
Method: as §1

[12] = top dose 1 µM, screen: GDSC drug entry 1218, top dose inferred
[13] = top dose 2.56 µM, screen: GDSC drug entry 163

Cell Line	AUC [1]	IC50 [1]	AUC [2]	IC50 [2]	AUC [3]	IC50 [3]	AUC [4]	IC50 [4]	AUC [5]	IC50 [5]	AUC [6]	IC50 [6]	AUC [7]	IC50 [7]	AUC [8, 12]	IC50 [8, 12]	AUC [8, 13]	IC50 [8, 13]	AUC [9]	IC50 [9]	AUC [10]	IC50 [10]	AUC [11]	IC50 [11]
SNU-423 (liver, adherent)	0.766	0.0552 µM	0.922	> 2 µM	0.785	0.00632 µM	0.94	> 1.02 µM	0.96	> 10 µM	0.829	1.97 µM	0.582	2.17 µM	0.851	0.974 µM	0.691	0.604 µM	0.313	0.34 µM	0.888	> 10 µM	0.035	< 0.02 µM
SW620 (large intestine, adherent)	0.76	0.0403 µM	0.99	> 2 µM	0.811	0.0057 µM	0.988	> 1.02 µM	0.988	> 10 µM	0.95	> 2.56 µM	0.973	> 20 µM	0.989	> 1 µM	0.875	2.02 µM	0.359	0.535 µM	0.961	> 10 µM	0.025	< 0.02 µM
KYSE-410 (oesophagus, adherent)	0.833	0.0905 µM	0.969	> 2 µM	0.638	0.00193 µM	0.982	> 1.02 µM	0.967	> 10 µM	0.937	> 2.56 µM	0.848	16.5 µM			0.516	0.177 µM	0.603	2.45 µM	0.862	9.5 µM	0.147	0.0231 µM
EFO-21 (ovary, adherent)	0.814	0.112 µM	0.964	> 2 µM	0.836	> 0.0125 µM	0.98	> 1.02 µM	0.97	> 10 µM	0.971	> 2.56 µM	0.978	> 20 µM	0.967	> 1 µM	0.708	0.806 µM	0.666	4.45 µM	0.844	> 10 µM	0.052	< 0.02 µM
H2795 (mesothelioma, adherent)	0.987	> 0.128 µM	0.948	> 2 µM	0.692	0.00267 µM	0.982	> 1.02 µM	0.956	> 10 µM	0.908	> 2.56 µM	0.907	> 20 µM	0.986	> 1 µM	0.88	> 2.56 µM	0.585	2.12 µM	0.918	> 10 µM	0.193	0.0395 µM
RKN (ovary, adherent)	0.731	0.0381 µM	0.976	> 2 µM	0.553	0.0011 µM	0.968	> 1.02 µM	0.983	> 10 µM	0.941	> 2.56 µM	0.957	> 20 µM	0.984	> 1 µM	0.837	1.86 µM	0.495	1.21 µM	0.903	> 10 µM	0.118	< 0.02 µM
SW780 (bladder, adherent)	0.972	> 0.128 µM	0.963	> 2 µM	0.529	0.000943 µM	0.959	> 1.02 µM	0.955	> 10 µM	0.986	> 2.56 µM	0.986	> 20 µM	0.944	> 1 µM	0.745	0.867 µM	0.944	> 20 µM	0.829	7.02 µM	0.602	0.626 µM
SNU-449 (liver, adherent)	0.982	> 0.128 µM	0.986	> 2 µM	0.986	> 0.0125 µM	0.981	> 1.02 µM	0.979	> 10 µM	0.865	> 2.56 µM	0.961	> 20 µM	0.941	> 1 µM	0.804	1.42 µM	0.76	7.65 µM	0.888	> 10 µM	0.151	0.0232 µM
HT-1376 (bladder, adherent)	0.982	> 0.128 µM	0.979	> 2 µM	0.922	> 0.0125 µM	0.967	> 1.02 µM	0.955	> 10 µM	0.961	> 2.56 µM	0.984	> 20 µM	0.976	> 1 µM	0.881	> 2.56 µM	0.829	15.5 µM	0.963	> 10 µM	0.883	> 5.12 µM
SUIT-2 (pancreas, adherent)	0.904	> 0.128 µM	0.916	> 2 µM	0.959	> 0.0125 µM	0.971	> 1.02 µM	0.972	> 10 µM	0.77	1.02 µM	0.96	> 20 µM	0.985	> 1 µM	0.441	0.11 µM	0.408	0.692 µM	0.897	> 10 µM	0.143	0.0228 µM
WM-115 (melanoma, adherent)	0.613	0.0176 µM	0.978	> 2 µM	0.737	0.00439 µM	0.978	> 1.02 µM	0.979	> 10 µM	0.975	> 2.56 µM	0.859	> 20 µM	0.961	> 1 µM	0.959	> 2.56 µM	0.454	0.913 µM	0.945	> 10 µM	0.074	< 0.02 µM
